{"source": "the supplement of paper PMC8728848", "assay_in_all_cases": "glycan array binding signal (z-score within array); higher = stronger binding", "conditions_in_all_cases": "glycan notation: IUPAC condensed, linker removed", "key": {"[1]": {"molecular_target": "Neu5Ac(a2-6)Gal(b1-4)GlcNAc(b1-2)Man(a1-6)[Gal(b1-4)GlcNAc(b1-2)Man(a1-3)]Man(b1-4)GlcNAc(b1-4)GlcNAc", "summary_of_the_method": "(§1)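 From the Consortium for Functional Glycomics database, 3228 arrays were curated, keeping only those whose protein sequence was available. Binding is given as a within-array Z-score averaged across arrays sharing a protein sequence and across linkers. Negative Z-scores can be read as non-binding.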"}, "[2]": {"molecular_target": "Neu5Ac(a2-6)Gal(b1-4)GlcNAc(b1-2)Man(a1-6)[GlcNAc(b1-2)Man(a1-3)]Man(b1-4)GlcNAc(b1-4)GlcNAc", "summary_of_the_method": "as §1"}, "[3]": {"molecular_target": "Neu5Ac(a2-6)Gal(b1-4)GlcNAc(b1-2)Man(a1-6)[Man(a1-3)]Man(b1-4)GlcNAc(b1-4)GlcNAc", "summary_of_the_method": "as §1"}, "[4]": {"molecular_target": "Neu5Ac(a2-6)Gal(b1-4)GlcNAc(b1-3)Gal(b1-3)GlcNAc", "summary_of_the_method": "as §1"}, "[5]": {"molecular_target": "Neu5Ac(a2-6)Gal(b1-4)GlcNAc(b1-3)Gal(b1-4)GlcNAc", "summary_of_the_method": "as §1"}, "[6]": {"molecular_target": "Neu5Ac(a2-6)Gal(b1-4)GlcNAc(b1-3)Gal(b1-4)GlcNAc(b1-3)Gal(b1-4)GlcNAc", "summary_of_the_method": "as §1"}, "[7]": {"molecular_target": "Neu5Ac(a2-6)Gal(b1-4)GlcNAc(b1-3)Gal(b1-4)[Fuc(a1-3)]GlcNAc(b1-3)Gal(b1-4)[Fuc(a1-3)]GlcNAc", "summary_of_the_method": "as §1"}, "[8]": {"molecular_target": "Neu5Ac(a2-6)Gal(b1-4)GlcNAc(b1-3)GalNAc", "summary_of_the_method": "as §1"}, "[9]": {"molecular_target": "Neu5Ac(a2-6)Gal(b1-4)GlcNAc(b1-3)[Neu5Ac(a2-6)Gal(b1-4)GlcNAc(b1-6)]GalNAc", "summary_of_the_method": "as §1"}, "[10]": {"molecular_target": "Neu5Ac(a2-6)Gal(b1-4)GlcNAc(b1-6)GalNAc", "summary_of_the_method": "as §1"}, "[11]": {"molecular_target": "Neu5Ac(a2-6)Gal(b1-4)GlcNAc(b1-6)[Gal(b1-3)GlcNAc(b1-3)]Gal(b1-4)Glc", "summary_of_the_method": "as §1"}, "[12]": {"molecular_target": "Neu5Ac(a2-6)Gal(b1-4)GlcNAc6S", "summary_of_the_method": "as §1"}, "[13]": {"molecular_target": "Neu5Ac(a2-6)GalNAc", "summary_of_the_method": "as §1"}, "[14]": {"molecular_target": "Neu5Ac(a2-6)GalNAc(b1-4)GlcNAc", "summary_of_the_method": "as §1"}, "[15]": {"molecular_target": "Neu5Ac(a2-6)GalNAc(b1-4)GlcNAc6S", "summary_of_the_method": "as §1"}, "[16]": {"molecular_target": "Neu5Ac(a2-6)GlcNAc(b1-4)GlcNAc", "summary_of_the_method": "as §1"}, "[17]": {"molecular_target": "Neu5Ac(a2-6)GlcNAc(b1-4)GlcNAc(b1-4)GlcNAc", "summary_of_the_method": "as §1"}, "[18]": {"molecular_target": "Neu5Ac(a2-8)Neu5Ac", "summary_of_the_method": "as §1"}, "[19]": {"molecular_target": "Neu5Ac(a2-8)Neu5Ac(a2-3)Gal(b1-3)GalNAc(b1-4)[Neu5Ac(a2-8)Neu5Ac(a2-3)]Gal(b1-4)Glc", "summary_of_the_method": "as §1"}, "[20]": {"molecular_target": "Neu5Ac(a2-8)Neu5Ac(a2-3)Gal(b1-4)Glc", "summary_of_the_method": "as §1"}, "[21]": {"molecular_target": "Neu5Ac(a2-8)Neu5Ac(a2-3)[Gal(b1-3)GalNAc(b1-4)]Gal(b1-4)Glc", "summary_of_the_method": "as §1"}, "[22]": {"molecular_target": "Neu5Ac(a2-8)Neu5Ac(a2-3)[GalNAc(b1-4)]Gal(b1-4)Glc", "summary_of_the_method": "as §1"}, "[23]": {"molecular_target": "Neu5Ac(a2-8)Neu5Ac(a2-8)Neu5Ac", "summary_of_the_method": "as §1"}, "[24]": {"molecular_target": "Neu5Ac(a2-8)Neu5Ac(a2-8)Neu5Ac(a2-3)Gal(b1-4)Glc", "summary_of_the_method": "as §1"}, "[25]": {"molecular_target": "Neu5Ac(a2-8)Neu5Ac(a2-8)Neu5Ac(a2-3)[GalNAc(b1-4)]Gal(b1-4)Glc", "summary_of_the_method": "as §1"}, "[26]": {"molecular_target": "Neu5Ac(a2-8)Neu5Ac(a2-8)Neu5Ac(a2-8)Neu5Ac(a2-3)[GalNAc(b1-4)]Gal(b1-4)Glc", "summary_of_the_method": "as §1"}, "[27]": {"molecular_target": "Neu5Ac(b2-6)Gal(b1-4)GlcNAc", "summary_of_the_method": "as §1"}, "[28]": {"molecular_target": "Neu5Ac(b2-6)GalNAc", "summary_of_the_method": "as §1"}, "[29]": {"molecular_target": "Neu5Ac9Ac(a2-3)Gal(b1-3)GlcNAc", "summary_of_the_method": "as §1"}, "[30]": {"molecular_target": "Neu5Ac9Ac(a2-3)Gal(b1-4)GlcNAc", "summary_of_the_method": "as §1"}, "[31]": {"molecular_target": "Neu5Ac9Ac(a2-6)Gal(b1-4)GlcNAc", "summary_of_the_method": "as §1"}, "[32]": {"molecular_target": "Neu5Gc(a2-3)Gal(b1-3)GlcNAc", "summary_of_the_method": "as §1"}, "[33]": {"molecular_target": "Neu5Gc(a2-3)Gal(b1-3)[Fuc(a1-4)]GlcNAc", "summary_of_the_method": "as §1"}, "[34]": {"molecular_target": "Neu5Gc(a2-3)Gal(b1-4)Glc", "summary_of_the_method": "as §1"}, "[35]": {"molecular_target": "Neu5Gc(a2-3)Gal(b1-4)GlcNAc", "summary_of_the_method": "as §1"}, "[36]": {"molecular_target": "Neu5Gc(a2-3)Gal(b1-4)[Fuc(a1-3)]GlcNAc", "summary_of_the_method": "as §1"}, "[37]": {"molecular_target": "Neu5Gc(a2-6)Gal(b1-4)GlcNAc", "summary_of_the_method": "as §1"}, "[38]": {"molecular_target": "Neu5Gc(a2-6)GalNAc", "summary_of_the_method": "as §1"}, "[39]": {"molecular_target": "Neu5Gc(b2-6)Gal(b1-4)GlcNAc", "summary_of_the_method": "as §1"}}, "note": "The list shows a part of the results."}
{"binder": "Calsepa (Calystegia sepium), P93114 (protein) MAVPMDTISGPWGNNGGNFWSFRPVNKINQIVISYGGGGNNPIALTFSSTKADGSKDTITVGGGGPDSITGTEMVNIGTDEYLTGISGTFGIYLDNNVLRSITFTTNLKAHGPYGQKVGTPFSSANVVGNEIVGFLGRSGYYVDAIGTYNRHK", "values": [{"measurement": "glycan array binding signal (z-score)", "setting": "[1]", "result": 4.01}, {"measurement": "glycan array binding signal (z-score)", "setting": "[2]", "result": 0.796}, {"measurement": "glycan array binding signal (z-score)", "setting": "[3]", "result": 2}, {"measurement": "glycan array binding signal (z-score)", "setting": "[4]", "result": -0.248}, {"measurement": "glycan array binding signal (z-score)", "setting": "[5]", "result": -0.248}, {"measurement": "glycan array binding signal (z-score)", "setting": "[6]", "result": -0.248}, {"measurement": "glycan array binding signal (z-score)", "setting": "[7]", "result": -0.238}, {"measurement": "glycan array binding signal (z-score)", "setting": "[8]", "result": -0.234}, {"measurement": "glycan array binding signal (z-score)", "setting": "[9]", "result": -0.274}, {"measurement": "glycan array binding signal (z-score)", "setting": "[10]", "result": -0.268}, {"measurement": "glycan array binding signal (z-score)", "setting": "[11]", "result": -0.275}, {"measurement": "glycan array binding signal (z-score)", "setting": "[12]", "result": -0.244}, {"measurement": "glycan array binding signal (z-score)", "setting": "[13]", "result": -0.253}, {"measurement": "glycan array binding signal (z-score)", "setting": "[14]", "result": -0.251}, {"measurement": "glycan array binding signal (z-score)", "setting": "[15]", "result": -0.272}, {"measurement": "glycan array binding signal (z-score)", "setting": "[16]", "result": -0.248}, {"measurement": "glycan array binding signal (z-score)", "setting": "[17]", "result": -0.245}, {"measurement": "glycan array binding signal (z-score)", "setting": "[18]", "result": -0.248}, {"measurement": "glycan array binding signal (z-score)", "setting": "[19]", "result": -0.273}, {"measurement": "glycan array binding signal (z-score)", "setting": "[20]", "result": -0.245}, {"measurement": "glycan array binding signal (z-score)", "setting": "[21]", "result": -0.271}, {"measurement": "glycan array binding signal (z-score)", "setting": "[22]", "result": -0.245}, {"measurement": "glycan array binding signal (z-score)", "setting": "[23]", "result": -0.245}, {"measurement": "glycan array binding signal (z-score)", "setting": "[24]", "result": -0.241}, {"measurement": "glycan array binding signal (z-score)", "setting": "[25]", "result": -0.245}, {"measurement": "glycan array binding signal (z-score)", "setting": "[26]", "result": -0.244}, {"measurement": "glycan array binding signal (z-score)", "setting": "[27]", "result": -0.243}, {"measurement": "glycan array binding signal (z-score)", "setting": "[28]", "result": -0.243}, {"measurement": "glycan array binding signal (z-score)", "setting": "[29]", "result": -0.251}, {"measurement": "glycan array binding signal (z-score)", "setting": "[30]", "result": -0.251}, {"measurement": "glycan array binding signal (z-score)", "setting": "[31]", "result": -0.245}, {"measurement": "glycan array binding signal (z-score)", "setting": "[32]", "result": -0.245}, {"measurement": "glycan array binding signal (z-score)", "setting": "[33]", "result": -0.251}, {"measurement": "glycan array binding signal (z-score)", "setting": "[34]", "result": -0.241}, {"measurement": "glycan array binding signal (z-score)", "setting": "[35]", "result": -0.247}, {"measurement": "glycan array binding signal (z-score)", "setting": "[36]", "result": -0.236}, {"measurement": "glycan array binding signal (z-score)", "setting": "[37]", "result": -0.247}, {"measurement": "glycan array binding signal (z-score)", "setting": "[38]", "result": -0.251}, {"measurement": "glycan array binding signal (z-score)", "setting": "[39]", "result": -0.244}]}
